# Reference: ChEMBL document CHEMBL4888484, “Replenishing the malaria drug discovery pipeline: Screening and hit evaluation of the MMV Hit Generation Library 1 (HGL1) against asexual blood stage Plasmodium falciparum ,using a nano luciferase reporter read-out” (2022)
# Hit rate of the full screen: of about 150,000 compounds, about 540 (0.36%) showed an effect of 50% or more. The list shows a part of the results.
# Test system: Plasmodium falciparum
# Assay: Primary screen in NF54 nanoGlo assay, in single point, at 2uM, 72h; a lower Z score goes with more inhibition
# Type: functional, Erythrocyte
# Settings: timepoint 72 hour
SMILES,% Inhibition [%],Z score
Cc1ccc(CC(=O)N2CCC(CN3C[C@@H](C(=O)N4CCCC4)CC3=O)CC2)cc1,0,0.01
Cc1ccc(CNC(=O)NCC(=O)N2CCC=C(F)C2)cc1,0,0.03
CC(C)(NS(=O)(=O)CCCN1CCOCC1)c1cccc(F)c1,7,-1.09
Cc1nccnc1N1C[C@H](C(C)C)[C@@H](N(C)C)C1,-10,1.72
CN(C)Cc1csc(CN(C)Cc2cccc(O)c2)c1,2,-0.25
O=C(c1c(F)ccc(F)c1F)N1CCC[C@H](c2nc(-c3ccncc3)ncc2-c2ccccc2)C1,13,-1.72
Cc1nn(C)c(C)c1CCC(=O)N1C[C@H]2CC[C@@H](C1)N(CC1CC1)C2,1,-0.22
CCOc1ccc(Cl)cc1CNCCOC,-10,1.91
O=c1[nH]c(=O)n(Cc2ncc(-c3ccccc3)o2)cc1Cl,-3,0.28
COCC1(C(=O)NCc2cc(-c3ccccc3Cl)on2)CCC1,-4,0.56
COCCOc1ccc(N)c(C(F)(F)F)c1,-13,1.31
CC(C)(C)n1cc(CNC2(Cc3ccc(F)cc3Cl)CCOCC2)nn1,8,-0.88
O=C(c1ccc(Cl)cc1)N1CCN(c2nc3ccccc3c3nnc(C4CC4)n23)CC1,-3,0.41
CC1(C)C[C@@H]1C(=O)N[C@H]1CC[C@H](O)CC1,-10,1.35
O=C(c1ccccc1NCC(=O)N1CCNC1=O)N1CCC[C@H](O)C1,-6,1.01
COCCn1ccc(NC(=O)NC2(c3ccccc3)CCCC2)n1,-21,1.91
COc1cc(OC)cc(-n2nnc(-c3nc(-c4ccc5c(c4)OCO5)cs3)c2N)c1,10,-1.18
CC(C)C(=O)N1C[C@H](O)C[C@H]1c1nnc2n1CCN(Cc1ccc(F)c(F)c1)C2,-7,0.77
CCOc1ccc(C(=O)N2c3ccccc3C(Nc3ccccc3)[C@H](C)C2CC)cc1 (stereo partly specified),-11,1.37
COCc1nnc2n1CC[C@@H](NC(=O)c1ccoc1)CC2,-7,1.11
CN1C(=O)C[C@H](C(=O)NCCCc2ncc[nH]2)C1(C)C,1,-0.1
Cc1ccc(CN2CCC(CNC(=O)c3cccc(NC(=O)c4nnc(C)s4)c3)CC2)cc1,-10,1.3
CN(C)c1cccc(C(=O)N2CCC(O)CC2)c1,-5,0.81
O=C1N[C@@H](c2ccc(OCc3ccc(Cl)cc3Cl)cc2)Nc2c1sc(=S)n2-c1ccccc1,-3,0.31
Cc1c(-c2c(-c3ccccc3)ncn2[C@H](C)c2ccccc2)cnn1C,10,-1.28
CC(=O)Nc1cccc(NC(=O)N(CCN(C)C)CC(C)C)c1,-1,0.22
Cn1c(=O)c(-c2nc(-c3ccccc3Br)no2)c(O)c2cc(F)ccc21,-5,0.63

SMILES,% Inhibition [%],Z score
N#C[C@@H]1CC[C@H](NC(=O)N2CC(F)C2)C1,-5,0.5
CN(Cc1ccccc1)[C@H]1CCCN(c2nc3c(cc2C(N)=O)CCC3)C1,5,-0.75
COc1ccc(Br)c(C(=O)N2CC3(C[C@H](N4CCN(C)CC4)CO3)C2)c1,-12,1.87
O=C(COc1ccc(Cl)cc1)N1CCc2ccccc2[C@H]1c1ccccc1Cl,-1,0.15
CCn1nc(C)c(CNCCN2CCc3ccccc3C2)c1C,6,-0.77
Cc1cccc(N2CCN(C(=O)c3nnn4cc(C)[nH]c(=O)c34)CC2)c1,-10,1.16
CC(=O)N[C@H]1C[C@H](c2cc(NCCCNc3cccnc3)ncn2)C1,-1,0.07
O=C1NC2(CCCCC2)C(=O)N1c1ccccc1,28,-3.17
Cc1nc(COC(C)(C)C)oc1C(=O)N[C@H]1CCCn2ncnc21,-8,1.21
O=C(COC(=O)c1ccc(-c2ccccc2)cc1)Nc1cccc(S(=O)(=O)N2CCOCC2)c1,-22,4.23
Cc1c(CN2CCN(C3CCN(C(C)C)CC3)[C@@H](CCO)C2)[nH]c2c(C)cccc12,-5,0.61
CCC(C)[C@H](NC(=O)[C@H]1CC[C@H](CNC(=O)[C@@H](CC(C)C)NC(=O)OC(C)(C)C)CC1)C(=O)O (stereo partly specified),-11,1.38
COc1cccc(N2CCN(C(=O)c3cnn(-c4cccc(F)c4)c3C3CCN(C(=O)OC(C)(C)C)CC3)CC2)c1,-6,1.06
C[C@H]1CN(Cc2nccs2)C[C@]1(O)C1CCC1,-1,0.2
O=C(CC(F)(F)F)NCc1ccccn1,41,-5.53
COc1ccsc1CNC12CCCCC1C2 (stereo unspecified),4,-0.73
COc1cccc(OC)c1OCC#CCN1CCC(C)CC1,2,-0.37
COCCN1CC[C@H](c2ncnn2-c2cccnc2)C1,-4,0.76
O=C(CS(=O)(=O)C1CCCC1)N1CC[C@H](C(F)(F)F)C1,-6,1.18
Cc1nc(O)cc(CCNC(=O)[C@H](O)c2cccc(Cl)c2)n1,7,-0.79
CCNC(=O)c1ccc(NCc2nc(C3OCCO3)cs2)cc1,3,-0.55
Cc1cccc(-c2noc([C@H](Cc3ccccc3)NC(=O)C3CCC3)n2)c1,-2,0.19
Nc1cc(N[C@H]2CCCN(CCCc3ccccc3)C2)ncn1,-9,1.81
Cc1cccc(-c2nnc3n2C[C@@H](C(=O)NCc2oc(C)nc2C)CC3)c1,-9,1.83
O=C(C1COCCN1CC(F)F)N1CCCC(OCCO)C1 (stereo unspecified),-8,1.34
COC(=O)CC1(NC(=O)c2ccc3c(c2)OCO3)CCCC1,4,-0.32
